# Laboratory results: the supplement of paper PMC11417369
# ± gives the standard deviation of the averaged measurements. This is one part of the list.
# Tested on: PfAP2-G AP2 domain (GST-tagged)
# Assay: gcPBM binding intensity (ln(normalized median fluorescence intensity)); higher = stronger DNA binding
# Summary of the method: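 Each value is the highest Masliner-normalised natural-log median intensity across replicate spots of either orientation of a probe. The probes were primer-extended double-stranded 36-bp intergenic genomic sequences on an Agilent 4 × 180k array, alongside negative controls, exposed for 1 h to GST-tagged P. falciparum DNA-binding domains expressed in E. coli. Bound protein was picked up with Alexa488 anti-GST antibody and scanned at 488 nm.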
row,Sequence,gcPBM binding intensity (ln)
1,AAATATTTATAGGTTTGTACTTATAAATAAAAAAAA [XGTACX_site7360],11.2 ± 0.88
2,TGAGGTAACTAAATATGTACGTAACGAAGATACATA [XGTACX_site8231],11.3 ± 0.62
3,ATACAAAATTTTTAAGAACACACAAAAATGTACTAT [CACACA_site8817],10.9 ± 0.61
4,AAGAAAAACTTTACGTGTACCAAACGTCATGCCAAC [XGTACX_site2575],11 ± 0.58
5,GCGTTATTAAATAATTCACACACATATATATATATA [CACACA_site8711],10.1 ± 0.28
6,GAACGCCATTCACATAAAGGGATACATAAATAAATA [XGTACX_negctrl_site330],10.1 ± 0.2
7,AATCACAAATAAAATAATATGACACAATATAAAATA [CACACA_negctrl_site537],9.945 ± 0.064
8,TACTTACACTGTTTTTGTACTTATTTCCCTTTTATT [XGTACX_site2158],11.2 ± 0.56
9,TTCTTGTATTTTCATAGTACATATAATGTCGTATTA [XGTACX_site600],10.9 ± 0.62
10,TAATTTCTTATGTATTGTACAAATAATGTATGATAT [XGTACX_site270],10.9 ± 0.56
11,AAAATAAAATTAGTTGCATGCAACTTAAACAGAAAT [TGCATGCA_site860],10.1 ± 0.14
12,TTGTGCTTGATATCACGGACAAGCTCATATTATATA [XGTACX_site4553],10.5 ± 0.42
13,ATAAATAAAGGACACACACACACACTAGAAAAAAAA [CACACA_site5450],11.2 ± 0.92
14,ATGAAAAAATTTATATGTACTTAAAATATAATCATA [XGTACX_site1228],11.3 ± 0.85
15,TATATTATTAAGATATGTACATAATTATAAATTTAA [XGTACX_site6848],11.1 ± 0.73
16,AAATGAAATACATCCTGTACATAGTAATGCTAACAA [XGTACX_site6600],10.7 ± 0.49
17,TTTTACAATGAAAGGTGTACAAGTAACAGTAGAACA [XGTACX_site1528],11.5 ± 0.76
18,TATAAATAAAAACACACACACACATATATATATATA [CACACA_site2268],10.1 ± 0.31
19,CTCTATAAATGCTGCACACACATTTAATTATTTAAG [CACACA_site2582],10.3 ± 0.35
20,TATAAATATAAATATACACACATATTTATATTTATA [CACACA_site7053],9.79 ± 0.22
21,TTTATATTTTATAAATTATTCATAAATATATTTGTA [TGCATGCA_negctrl_site175],9.61 ± 0.057
22,TTTTGAAACATATGATGTACACGAACATTTAAAAAA [XGTACX_site474],11.4 ± 0.8

row,Sequence,gcPBM binding intensity (ln)
1,AATAAATAGATAAGCACACAAGCATATAGACATATA [CACACA_site222],9.87 ± 0.085
2,AAATTCCACCAACACACACACATATAAATAAATAAA [CACACA_site1233],10 ± 0.29
3,AACAAATACAGACACACACACACACTAATAAAAAAA [CACACA_site8067],10.3 ± 0.38
4,TATTTTTATATTTTTGCACACATTCTTTACTCTTCA [CACACA_site2211],10.1
5,AAAAATTTTATATTCACACACATATATATATATATA [CACACA_site624],10.1 ± 0.35
6,GATATATATTAATATACACACACACCGATATATATA [CACACA_site8462],9.895 ± 0.007
7,TTGTATTATTATGTTGCACACATTTTATATAAAATA [CACACA_site3641],10.6 ± 0.51
8,TTTAGATAATTCATTACACACATGTATTTATATATA [CACACA_site5847],9.895 ± 0.049
9,TATATATATATATATATATATACAAATATATATTAT [CACACA_negctrl_site1729],10.1 ± 0.74
10,TGAGCATAAAAAGGGTGTACTTAAATATATTATATA [XGTACX_site7556],11.4 ± 0.88
11,GAATATAATCTGTATTGTACGAAAGTTGAACACTTG [XGTACX_site8895],10.8 ± 0.4
12,ATACCAACATATTATACACACCTTTATATTTTTTTT [CACACA_site5217],10.1 ± 0.15
13,GGTTGTATAAGTTTTTGTACATATATATATATATAT [XGTACX_site7487],10.9 ± 0.47
14,TTCAAGGTTTTAGATTGTACAATTATTATATATATA [XGTACX_site8982],10.9 ± 0.43
15,ATAAAAGATATTTTTACACACTTTTGATGAGATCGT [CACACA_site3053],10.08 ± 0.057
16,AAGTATAAAAAAAGGCGTACAAAAAAAAAAAAAAAA [XGTACX_site7309],11.7 ± 0.9
17,TTTTTCATTAATACAAGTACAAAATGATGTTGACAT [XGTACX_site1475],10.9 ± 0.57
18,TAATAAGAAATAACAGGTACACATATATAAATATTA [XGTACX_site2976],11.1 ± 0.66
19,ATATGTAGATGATATTATTACTTTTCAAAAATTCAA [CACACA_negctrl_site933],9.835 ± 0.078
20,ACTATTTAGTCTGGTGGTACTTTATATATAATTTCT [XGTACX_site5618],11.1 ± 0.5
21,ATATGTGTATGTGCGTGTACATATCTATACAGTTGT [XGTACX_site6540],11.3 ± 0.81
22,TTTTATCTTTTTTTATTTTAATGTATTATTTTTATG [XGTACX_negctrl_site24],9.79 ± 0.042

row,Sequence,gcPBM binding intensity (ln)
1,ATTATCATAATGTTCACACATATGGTATATATAGAT [CACACA_site6113],10.18 ± 0.014
2,TTTTTGTAAAAACACACACACAAACAGAAAAAATAA [CACACA_site2076],10.4 ± 0.28
3,TGTGCCCAAAATTATGCACACACCTAAAATTAATTT [CACACA_site2914],10.3 ± 0.22
4,ATGGTAGTTCTCCATGCATGCCTTTTTATTATCATA [TGCATGCA_site681],9.89 ± 0.2
5,ATACTTTAAAATAATACACACATGGAAAATAAAATT [CACACA_site697],10.3 ± 0.17
6,AAGACAAATATGTATTGTACGAACGCTTTTTAATTA [XGTACX_site1961],10.8 ± 0.44
7,AAAAAAAAATAAAAAAGTACAGGTAAATATATATAT [XGTACX_site5812],11.5 ± 1.2
8,AAAAAAAAAAAATATATATATATATATATAATATTT [GTGCAC_negctrl_site678],9.43 ± 0.099
9,GAATAAATAAAAATATGTACATAAATATATATATAT [XGTACX_site8858],11.4 ± 0.71
10,ATAAAAGTTTAATATTGTACGAACATGCGTTTCTAA [XGTACX_site1487],10.8 ± 0.49
11,TTTATAAAATATCTTTCACACATTACTATGTATTAT [CACACA_site5148],9.825 ± 0.092
12,TTCTTAAAAAATCAAACACACATATATATATACATA [CACACA_site2296],9.91 ± 0.12
13,ATAAATAGAATAAAATGTACATGTAATACATATATA [XGTACX_site5475],10.9 ± 0.43
14,TTTTATTATTAAACATGTACCCATATTATTGTTATG [XGTACX_site5563],11.2 ± 0.56
15,AAAAAAAAAAAAAAAACACACAATTGAATTATTAAG [CACACA_site2864],10.3 ± 0.29
16,AAATTTGGTGAAGGATGTACTTTACCTAATACTTGT [XGTACX_site4825],11 ± 0.62
17,TATATATATTGTTATTGTACACAAATATAGGAAATA [XGTACX_site7110],11.4 ± 0.87
18,AAAACAAAAAAATTTTGTACGAAACAATACTGTAAG [XGTACX_site7992],10.6 ± 0.29
19,TTTTTTTTTGGGTGTACACATGAATATATATTTTTT [CACACA_site5254],11.7 ± 0.95
20,AAAAAAATATATTCCTAATTTATGATTAAAAGGAAT [CACACA_negctrl_site751],9.52 ± 0.16
21,ATAAATTAAACAAACACACACGTTCTTTTATTTACT [CACACA_site4556],9.985 ± 0.049
22,AGAATTATATCATGGTGTACTTATTTGTTTATTTCT [XGTACX_site5795],11.6 ± 1

row,Sequence,gcPBM binding intensity (ln)
1,AACATTATCAAATAAACCATAAATCAATTCAATATG [CACACA_negctrl_site696],9.945 ± 0.092
2,AAACGTTTATTTTATTGTACATATGAAAAATGCTTC [XGTACX_site6896],11 ± 0.69
3,TTGTATAAAAAACTAAAAAATATAAAATAATAAGTG [CACACA_negctrl_site1704],10.1 ± 0.13
4,ATATTTTTTTTTTTCACACACATTTAGATTGTATTA [CACACA_site3137],10 ± 0.11
5,AAAAAAAAAAAAAATTGTACGGATTCTTTTTTTTTT [XGTACX_site2898],11.1 ± 0.55
6,TATATTTATATATATACACACATAATAAAAAATATA [CACACA_site844],9.9 ± 0.11
7,TTGTTTTGTAATAAAAAAAAAATAATATAATATAAT [XGTACX_negctrl_site300],9.78 ± 0.11
8,CGTAATAATTAATGTTGTACCCACCAAAAAAATTAA [XGTACX_site8592],11.3 ± 0.93
9,ATTACATTTTTGTTTTGTACATATATTTTATAAACA [XGTACX_site494],11.1 ± 0.56
10,TATAAAAAAAATAAAATAAAATAAAATAGAAAAATA [TGCATGCA_negctrl_site109],9.78 ± 0.4
11,GAAATATTGAAACACACACACAAACATATATATATA [CACACA_site1911],10.1 ± 0.35
12,TTTATAGTTTTAAACAAAGTAATACAAATGTATATA [CACACA_negctrl_site1716],9.77 ± 0.12
13,GAAAAATTAAAATGTGGTACAATAAAATTTTATTCA [XGTACX_site5030],11.4 ± 0.98
14,ATATTTATACTATACACACCCAATTTAAAAAAAAAT [CACACA_site1163],10.2 ± 0.11
15,AATTTATTAATACAAAGTACTTTCTAATATGAATTT [XGTACX_site8013],10.8 ± 0.49
16,TTATTGCGCACAATTTGTACATATATATATATAGAA [XGTACX_site7573],11 ± 0.54
17,GTAAGAAACAGACACACACACATATAAATATAAATA [CACACA_site6515],10.2 ± 0.32
18,TATTGAAAAAGTGGAAAAAAGTACATCATACGGGAA [CACACA_negctrl_site1091],11.4 ± 0.73
19,TAACAAAGTAAAAGAACATGCAAACACGCACACAGA [TGCATGCA_site374],10.4 ± 0.13
20,GGGGAAAAAGCAGGTTGTACAGTGATGTCCATATAA [XGTACX_site7606],11.5 ± 0.91
21,TAAATCACAAAATTATGTACTAAGAAGGAGCAACAT [XGTACX_site6742],10.9 ± 0.62
22,TATACCTTAATATACACACATACATATATATATATA [CACACA_site1339],10 ± 0.17
